The source of these data is FireProtDB (doi:10.1021/bi00135a022).

The conditions of the series: Escherichia coli (strain K12), pH 7, DSC, reversible: yes.
The mark [1] stands for this setting: 25 °C, Thermal, phosphate 0.01 M, NaCl 0.1 M.
Setting [2] is: 25 °C, Urea, MOPS 0.05 M, NaCl 0.5 M.
The mark [3] stands for this setting: Thermal, phosphate 0.01 M, NaCl 0.1 M.

Regarding “Thioredoxin 1 wild type (sequence left out)”, where the note is “25 °C, GdnHCl, MOPS 0.05 M”, the denaturant m value was 3.51 kcal/mol/M, the “denaturant midpoint (higher = more stable)” value was determined as 2.22 M and the unfolding free energy came to 7.8 kcal/mol. Also, under setting [1], the “heat capacity change of unfolding” value was 1.66 kcal/mol/K and the unfolding free energy came to 8.9 kcal/mol. In addition, under setting [2], the denaturant m value is 1.32 kcal/mol/M, the “denaturant midpoint (higher = more stable)” value was found to be 6.57 M and the unfolding free energy stood at 8.6 kcal/mol. Also, under setting [3], the Tm was 87 °C and the “unfolding enthalpy (calorimetric)” value came to 107 kcal/mol.
